PubChem BioAssay AID686979 (National Center for Advancing Translational Sciences (NCATS), 2013)
Hit rate of the full screen: of about 420,000 compounds, about 50,000 (12%) were called active. Inconclusive results, whose numbers are uncertain, are shown with a selection of clear calls. The call rests on the fitted dose curve; in most records, active means well fitted inhibition curve with a large enough effect; inconclusive means small, poorly fitted or top-dose-only effect; inactive means flat fitted curve, though single readings scatter. No potency is given beside an inconclusive call; the fits are too rough.

Assay: qHTS for Inhibitors of human tyrosyl-DNA phosphodiesterase 1 (TDP1): qHTS in cells in presence of CPT; further: nearly all actives have a fitted effect of over 55% in size
Conditions: chicken DT40 Tdp1-/-;hTDP1 cells + 20 nM CPT, ATP luminescence, 48 h; series mostly up to 46.2 µM
Summary of the method: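 Chicken DT40 Tdp1-/- cells stably complemented with human TDP1 were seeded at 400 cells/well in medium containing 20 nM camptothecin, exposed to pin-transferred compounds, and grown at 37 °C for at least 48 hr. Viability was read as ATP luminescence.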
Potency means the concentration at half of the fitted maximal effect; tags describe the fitted curve by direction and shape.

| SMILES | Potency |
| --- | --- |
| COc1ccccc1-c1cc(C(F)(F)F)nc(S(=O)(=O)CCCC(=O)Nc2cc(C)on2)n1 | active: 0.92 µM |
| Cc1ccc(NC(=S)N(CCN(C)C)C(C)c2ccco2)cc1Cl (stereo not drawn) | inconclusive [inhibitor, single point] |
| Oc1ccc(-n2nnnc2SCc2c(F)cccc2Cl)cc1 | inconclusive [inhibitor, single point] |
| COC(=O)C1=CN(CCOC23CC4CC(CC(C4)C2)C3)C=C(C(=O)OC)C1c1ccsc1 | inconclusive [inhibitor, single point] |
| CC(C)OCCCn1c(=O)c2ccccc2n2c(-c3cc(Cl)ccc3O)nnc12 | inconclusive [inhibitor, single point] |
| COC(=O)C1=C(C)NC(=O)NC1c1cn(-c2ccccc2)nc1-c1cccs1 (stereo not drawn) | inconclusive [inhibitor, single point] |
| COc1ccc(S(=O)(=O)N2CCOCC2)cc1C(=O)N(C)Cc1ccccc1F | inactive |
| COc1ccc(-n2nc(C(=O)NCC(=O)Nc3ccccn3)c3ccccc3c2=O)cc1 | inactive |
| CCCCCCn1c(SCC(=O)Nc2cc(C)on2)nc2ccccc2c1=O | inconclusive [inhibitor, single point] |
| NC(Cc1c[nH]c2ccccc12)C(=O)NCc1ccccc1 (stereo not drawn) | inactive |
| COc1cc2c(cc1OC)C(COc1ccc(F)cc1)N(C(=O)Cc1ccccc1)CC2 (stereo not drawn) | inconclusive [inhibitor, single point] |
| CCOc1ccc(-c2cc(C(=O)NCCCOC)c3c(-c4ccc(CC)cc4)[nH]nc3n2)cc1 | inconclusive [inhibitor, single point] |
| CCN(CC)c1ccc(NC(=O)C2CC3CCC2C3)cc1 (stereo not drawn) | inconclusive [inhibitor, single point] |
| COc1cccc(NC(=O)NC2CCN(Cc3nnnn3Cc3ccc4c(c3)OCO4)CC2)c1 | inconclusive [inhibitor, single point] |
| CC(=O)N1c2ccccc2N(Cc2ccc(C)cc2C)C(=O)C1(C)C | active: 6.51 µM |
| O=C(CNC(=O)Cn1ccc2ccccc2c1=O)NCCCN1CCN(c2cccc(Cl)c2)CC1 | inconclusive [inhibitor, partial curve] |
| COc1ccc(CCNC(=O)C(Sc2ccccn2)c2ccccc2)cc1OC (stereo not drawn) | inconclusive [inhibitor, single point] |
| Cc1cn2c(=O)cc(COC(=O)c3ccc(NC(=O)COc4ccc(C)c(C)c4)cc3)nc2s1 | inactive |
